This passage reports activation results from PubChem BioAssay AID1346428 (National Center for Advancing Translational Sciences (NCATS), 2018).

Hit rate of the full screen: of about 48,000 compounds, about 1,200 (2.5%) were called active. Another 2% or so got no clear call; they are omitted.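 Rule for the calls: active = activation of at least 60% and not above a set upper limit (about 1 call in 100 departs from these limits); inconclusive = activation of 40% to 60%, or above that upper limit; inactive = activation under 40%.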 Some of the results follow.

Sequence of UniProt O75388 (O75388 whole entry, looked up, the tested form may be a part): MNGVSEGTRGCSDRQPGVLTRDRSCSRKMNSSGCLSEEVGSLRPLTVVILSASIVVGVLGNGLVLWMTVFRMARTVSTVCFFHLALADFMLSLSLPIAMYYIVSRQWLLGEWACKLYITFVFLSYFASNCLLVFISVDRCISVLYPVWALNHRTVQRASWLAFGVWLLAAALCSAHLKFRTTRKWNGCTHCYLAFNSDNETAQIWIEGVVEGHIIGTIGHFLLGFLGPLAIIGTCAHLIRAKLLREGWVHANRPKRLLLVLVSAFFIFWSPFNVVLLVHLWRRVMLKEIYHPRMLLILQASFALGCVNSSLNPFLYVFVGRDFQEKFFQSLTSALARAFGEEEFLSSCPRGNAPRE

The assay deals with Probable G-protein coupled receptor 32 (Homo sapiens) (UniProt O75388). Briefly: qHTS for Agonists of Human Resolvin D1 Receptor DRV1. The conditions noted are these: CHO-K1 GPR32 beta-arrestin PathHunter luminescence, 90 min; at 76.9 µM; hits give high values; zero percent set by DMSO-only wells. The method in brief:
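PathHunter enzyme-fragment complementation, CHO-K1 GPR32 stable line; 2,500 cells/well, overnight attach; cpd 90 min 37 °C 5% CO2; detection reagent 1 h RT; chemiluminescence. DMSO = EC0.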
Turning to `CCOc1ccc(Nc2cc(C)c(C#N)c3nc4ccccc4n23)cc1`, the activation was inactive: 5.04%.
For the compound `Cc1cccc(N(C)C(=O)CS(=O)(=O)c2cccc3nsnc23)c1`, the activation was inactive: -4.89%.
As to `COc1cccc(CNC(=O)c2ccc3c(Cl)c4c(nc3c2)CCCC4)c1`, the activation was inactive: -7.34%.
Under `Cc1ccc(C(C)C)c(OCc2ccc(C(=O)Nc3ccc(S(N)(=O)=O)cc3C)o2)c1` stands inactive: 33.3%; under `Cc1ccc(S(=O)(=O)c2nc(-c3ccco3)oc2SCC(=O)c2ccc(Cl)cc2)cc1`, inactive: -13%.
On to `O=C(OCc1ccco1)c1ccc2c(c1)N(Cc1ccc([N+](=O)[O-])cc1)C(=O)c1ccccc1S2`, for which the activation is inactive: -9.91%.
Consider `CCCCN(CCCC)C(C(N)=O)c1ccc(OC)cc1` (centres undefined), for which the activation was inactive: -4.53%.
To `Oc1ccccc1-c1nc(/C=C/c2ccccc2)nn1-c1ccccc1` belongs inactive: -13.3%.
For `O=C(CN1C(=O)COc2ccc(S(=O)(=O)N3CCCC3)cc21)NCCc1ccc(Cl)cc1`, the activation was inactive: -16.2%.
Under `Cc1nc(-n2nc(C)c(CCC(C)C)c2C)sc1C(=O)Nc1cccc(Cl)c1C` stands inactive: -6.32%; under `CCOC(=O)c1c(NC(=O)c2ccccc2C)sc2c1CCCC2`, inactive: -7.23%.
Take `CC1CCN(c2nn3c(=O)c(C(=O)NCCc4ccc(Cl)cc4)cnc3s2)CC1`: the activation was inactive: 39.2%.
To `COc1cc(OC)c(C(=O)CCCN2CCCC2)c(OC)c1` belongs inactive: -6.45%; to `CC(=O)NCCc1c[nH]c2ccc(O)cc12`, inactive: 7.33%; to `COc1ccc2oc(=O)cc(CN3CCN(C(=O)c4ccccc4Br)CC3)c2c1`, inactive: -19.7%.
To `O=c1[nH]c2ccc(NS(=O)(=O)c3ccc(F)cc3)cc2s1` belongs inactive: -7.84%; to `CCOc1ccc2nc(N3CCN(C(=O)C(C)C)CC3)sc2c1`, inactive: 9.49%; to `Brc1ccc(-c2nc(N3CCN(c4ccccc4)CC3)c3ccccc3n2)cc1`, inactive: -4.44%.
For `Cn1nnnc1SCCCNCc1ccc(-c2cccc(Cl)c2)o1`, the activation was inactive: -11.3%.
Regarding `Cn1c(=O)c2c(-c3ccccc3)n3c(c2n(C)c1=O)C(c1cccc([N+](=O)[O-])c1)Nc1ccccc1-3` (centres undefined), the activation is inactive: -7.23%.
With `Cc1ccc(NC(=O)C2CCCN(c3nc4ccccc4s3)C2)c(C)c1` (centres undefined), the activation is inactive: -3.57%.
Regarding `COc1ccc(C(=O)N2CCN(CCc3ccccn3)CC2)cc1`, the activation was inactive: -1.49%.
As to `Cc1cccc(C)c1NC(=O)Cn1c(=O)n(CCC(=O)NCc2ccc3c(c2)OCO3)c(=O)c2sccc21`, the activation was inactive: -16.3%.
As for `COc1ccc(-c2cc(C(F)(F)F)n3nc(C(=O)Nc4ccc(Cl)cc4C(F)(F)F)cc3n2)cc1OC`, the activation is inactive: -0.821%.
